# Data published in article PMC4336329 (PLoS ONE, 2015).
# Out of some 310,000 compounds screened, about 14,000 (4.5%) showed an effect of 50% or more. The effect is printed as a negative number. Some of the results follow.
# Target: human ether-à-go-go-related gene (hERG) potassium channel (human, UniProt Q12809)
# Test: primary screen, population patch clamp on CHO cells stably expressing hERG
# 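Also: peak tail current of the secondary pulse compared with the same well before compound.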
# Sequence of human ether-à-go-go-related gene (hERG) potassium channel (Q12809 whole entry, looked up): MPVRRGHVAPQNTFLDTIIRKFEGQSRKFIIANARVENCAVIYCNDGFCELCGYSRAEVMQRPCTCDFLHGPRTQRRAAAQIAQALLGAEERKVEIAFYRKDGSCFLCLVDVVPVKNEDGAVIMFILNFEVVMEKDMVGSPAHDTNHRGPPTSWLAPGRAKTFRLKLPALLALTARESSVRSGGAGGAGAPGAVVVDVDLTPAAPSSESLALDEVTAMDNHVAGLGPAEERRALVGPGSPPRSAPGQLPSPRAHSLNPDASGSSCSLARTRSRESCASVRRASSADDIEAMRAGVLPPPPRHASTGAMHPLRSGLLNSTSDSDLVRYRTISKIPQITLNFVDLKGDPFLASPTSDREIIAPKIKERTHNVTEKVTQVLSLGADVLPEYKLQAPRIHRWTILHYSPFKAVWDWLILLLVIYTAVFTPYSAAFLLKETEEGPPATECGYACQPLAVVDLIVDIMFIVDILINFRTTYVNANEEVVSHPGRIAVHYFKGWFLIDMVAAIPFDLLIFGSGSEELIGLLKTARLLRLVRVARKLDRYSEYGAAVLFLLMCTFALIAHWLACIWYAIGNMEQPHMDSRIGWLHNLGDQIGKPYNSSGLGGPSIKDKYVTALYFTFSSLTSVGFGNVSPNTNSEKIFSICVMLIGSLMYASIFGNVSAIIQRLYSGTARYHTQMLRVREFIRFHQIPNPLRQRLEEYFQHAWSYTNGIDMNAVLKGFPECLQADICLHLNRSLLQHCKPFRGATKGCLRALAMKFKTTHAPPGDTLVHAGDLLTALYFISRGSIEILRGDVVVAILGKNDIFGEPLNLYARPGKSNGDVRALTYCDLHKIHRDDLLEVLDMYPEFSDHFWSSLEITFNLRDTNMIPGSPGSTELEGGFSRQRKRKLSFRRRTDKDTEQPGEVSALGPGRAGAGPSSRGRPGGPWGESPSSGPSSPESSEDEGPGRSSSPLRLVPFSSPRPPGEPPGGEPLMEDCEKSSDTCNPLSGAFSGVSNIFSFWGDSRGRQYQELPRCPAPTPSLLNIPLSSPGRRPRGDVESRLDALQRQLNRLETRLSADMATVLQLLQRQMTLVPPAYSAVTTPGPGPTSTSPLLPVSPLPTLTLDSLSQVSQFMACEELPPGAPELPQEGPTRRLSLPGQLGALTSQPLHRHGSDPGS
row,SMILES,"hERG current change (%, negative = inhibition) at 10uM [%]"
1,O=C(Nc1cc(C(F)(F)F)ccc1N1CCOCC1)c1cnccn1,-2.15
2,Cc1cccc(N2C(=O)NC(=O)/C(=C/c3ccc(-c4ccc(C(=O)O)c(Cl)c4)o3)C2=O)c1,17.3
3,COC(=O)c1cn(CC(=O)NC2CCCCC2)c2ccccc12,2.59
4,O=C(NC1CCCCC1)C(c1ccccc1)N(Cc1cccnc1)C(=O)c1csnn1 (centres unmarked),3.92
5,CCOC(=O)c1c(-n2c(C)cc(C=O)c2C)sc2c1CCCC2,-5.53
6,CC1(C)CN2C(=S)N(c3ccccc3)C(c3ccccc3)N2C1 (centres unmarked),-6.53
7,COCCn1nnnc1C(c1ccccc1)N1CCN(Cc2ccc3c(c2)OCO3)CC1.Cl (centres unmarked),-21.6
8,O=C(CCSc1ccccc1)Nc1nc2c(s1)CCCC2,0.748
9,COc1ccc(C(=O)Nn2c(SCC(=O)c3ccc(Cl)cc3)nc3ccccc3c2=O)cc1,2.5
10,N#Cc1ccc(S(=O)(=O)N2CCC(C(=O)N3CCN(Cc4ccc5c(c4)OCO5)CC3)CC2)cc1,-74.2
11,Cc1ccc(S(=O)(=O)NCC(C)n2nc(C)cc2C)cc1 (centres unmarked),16.9
12,CCN(CC)c1ccc(C(=S)N2CCN(c3ccccc3)CC2)cc1,4.69
13,COC(=O)c1cc(S(=O)(=O)NCCN2CCOCC2)cn1C,2.78
14,COc1ccc(CCN2CC(C(=O)N3CCSCC3)CCC2=O)cc1 (centres unmarked),-1.72
15,Cc1cccc(OC(=O)N2CCOCC2)c1,6.87
16,COc1cccc(/C=N/Nc2nc(N3CCCC3)nc(N3CCCC3)n2)c1O,12.7
17,C[C@H](NC(=O)c1nc[nH]c1C(=O)N1CCc2ccccc2C1)C(=O)OCc1ccccc1,-13.1
18,Cc1ccccc1S(=O)(=O)Cc1ccc(C(=O)N2CC(C)CC(C)C2)o1 (centres unmarked),-23
19,Cc1ccc(C(=O)NCC(=O)OCC(=O)Nc2ncc(C(F)(F)F)cc2Cl)cc1,-13.3
20,O=C(CSc1nnc(-c2ccccc2)n1-c1ccc(Cl)cc1)NC1CCS(=O)(=O)C1 (centres unmarked),-15.2
21,CCC(=O)N1CCc2cc(S(=O)(=O)NCCC(=O)NCc3ccccc3Cl)ccc21,-1.91
22,O=C(NCC1CCCO1)c1ccc(-c2cccc(C(F)(F)F)c2)o1 (centres unmarked),-16.2

row,SMILES,"hERG current change (%, negative = inhibition) at 10uM [%]"
1,CCCn1c(SCC(=O)Nc2ccc(NC(=O)CC)cc2)nc2c1c(=O)n(C)c(=O)n2C,15.7
2,O=C1c2ccccc2C(=O)N1Cc1ccccn1,22.9
3,COc1ccc(NC(=O)N2CCCC2C(=O)Nc2ccccc2)cc1 (centres unmarked),10.9
4,O=C(Cc1ccc(Cl)cc1Cl)Nc1ccncc1,-0.174
5,Cc1cccc(C(=O)NC(=S)Nc2ccc(N3CCOCC3)cc2)c1,14.1
6,CCC(NC(=O)Cc1c(C)c2ccc(OC)c(C)c2oc1=O)C(=O)NC(Cc1ccc(Cl)cc1)C(=O)O (centres unmarked),-0.235
7,Cc1cccc(N2CC(C(=O)Nc3nnc(SCC(=O)Nc4nccs4)s3)CC2=O)c1 (centres unmarked),5.52
8,Cc1cc(-c2nnc(SCC(=O)Nc3ccccc3Cl)n2C)no1,-5.89
9,Cc1ccc2c(cnn2C(=O)CCC(=O)NC2CCCC2)c1,-10.3
10,COC(=O)[C@@]1(Cc2ccc(F)cc2)[C@H]2c3cc(C(=O)N(C)C)n(Cc4nc5ccccc5[nH]4)c3C[C@H]2CN1C(=O)c1ccccc1,1.29
11,CN(C)C(CN=C1NS(=O)(=O)c2ccccc21)c1ccco1 (centres unmarked),9.69
12,CC(C)(C)c1ccc(C(=O)NC(=S)Nc2sc3c(c2C#N)CCC3)cc1,5.03
13,Cc1cc(Nc2ncc(Cl)cc2Cl)n(-c2ccccc2C)n1,-13.8
14,O=C(Nc1cccc(Cl)c1)Nc1ccc2c(c1)OCO2,-1.46
15,CC1CCCC(NC(=O)CNC(=S)N2CC3CC(C2)c2cccc(=O)n2C3)C1C (centres unmarked),23.3
16,Cc1cc(C)n2cc(-c3ccc(Cl)cc3)c(C(=O)O)c2n1,-50.9
17,O=C1C(=C(c2ccccc2)c2ccccc2)Nc2ccccc21,5.34
18,N#Cc1c(N2CCCC2)nsc1-c1ccccc1,14.5
19,CCCc1cc(C(=O)NNC(=S)NCC2CCCO2)cs1 (centres unmarked),-1.58
20,O=C1CC(=O)Nc2cc(S(=O)(=O)Nc3ccc(F)cc3Cl)ccc2N1,-2.84
21,Cc1cc(C)n(C(=O)Cn2nc(C(F)F)cc2C)n1,22.1
22,c1ccc(-c2noc(CC3CCCCC3)n2)nc1,6.32
